Measurements: PubChem BioAssay (NCATS)
“And” between values parts separate entries of the source, which are not always exact repeats. Equal entries are not always repeated. The shares of active, inactive and inconclusive entries below differ from those in the screen. For some of these results: A potency beside an inconclusive call is a rough fit, not a confirmed value. For some of these results: A note “side channel” means that the fit belongs to a control or component signal, not to the main read-out. The source made the active and inactive calls. Unless noted, calls come from the whole dose curve; as a rule, active = well fitted curve in the direction sought with a large enough effect; inconclusive = small, poorly fitted or top-dose-only effect, or another doubt; inactive = no such curve, though single readings can be large; an effect the other way counts as inactive or inconclusive.

Assays:
[1] = molecular target: Cytochrome P450 2C19 (Homo sapiens) (UniProt P33261); experiment: qHTS Assay for Inhibitors and Substrates of Cytochrome P450 2C19 (AID 899); note: nearly all actives have a fitted effect of over 60% in size; note: potency is the fitted concentration of half-maximal effect; for activity, negative = inhibition: top concentration of the series differs between compounds; % is set by controls: 0 for no effect and ±100 for the full control effect
Chain of UniProt P33261 (P33261 whole entry, looked up): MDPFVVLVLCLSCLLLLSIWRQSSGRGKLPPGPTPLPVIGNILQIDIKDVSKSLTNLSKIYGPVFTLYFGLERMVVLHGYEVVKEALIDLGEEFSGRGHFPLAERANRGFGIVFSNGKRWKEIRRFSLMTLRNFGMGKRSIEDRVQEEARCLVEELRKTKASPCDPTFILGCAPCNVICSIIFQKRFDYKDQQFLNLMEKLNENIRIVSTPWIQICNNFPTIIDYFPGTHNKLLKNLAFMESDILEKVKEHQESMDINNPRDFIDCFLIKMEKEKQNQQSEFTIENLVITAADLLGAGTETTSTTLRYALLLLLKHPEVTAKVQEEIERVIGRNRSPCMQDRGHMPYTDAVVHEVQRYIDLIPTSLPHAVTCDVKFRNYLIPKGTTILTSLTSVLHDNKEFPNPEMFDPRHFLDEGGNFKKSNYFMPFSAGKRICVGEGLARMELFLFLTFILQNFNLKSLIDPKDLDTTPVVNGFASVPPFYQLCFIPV
Method in brief: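 Signal comes from luciferase acting on luciferin released by CYP2C19-mediated hydroxylation of Luciferin-H EGE, 10uM (KM). Assay mix: 5nM enzyme, 50mM KPO4; 60 min at 37C with NADPH regeneration. Data normalized against 57uM ketoconazole.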

[2] = qHTS Assay for Identification of Small Molecule Agonists for Hypoxia Response Element Signaling Pathway (AID 914; active = well fitted activation curve with a large enough effect in the signal ratio, with a control signal flat, not every such curve was filed as active; inconclusive = small, poorly fitted or top-dose-only effect, or effect the other way, or a change in a side signal; the % refers to the signal ratio; note: potency is the fitted concentration of half-maximal effect; for activation: top concentration of the series differs between compounds; % of control where 0% means no effect); settings: ME-180 HRE-bla reporter, beta-lactamase ratio, CoCl2, 17 h; activation: hits give high values
Method in brief: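 ME-180 cells carrying an HRE-driven beta-lactamase reporter were treated with compounds in a titration series plus an EC50 level of CoCl2 for 17 h at 37 degrees Celsius; CCF4 readout as the 460nm/530nm ratio gave AC50 values.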

[3] = qHTS Assay for Identification of Small Molecule Agonists for Thrombopoietin (TPO) Signaling Pathway (AID 917); note: potency is the fitted concentration of half-maximal effect
Method in brief: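 Murine Ba/F3 cells stably expressing human TPO receptor and a Glycoprotein IIb promoter–luciferase reporter were IL-3-starved overnight, then treated with compounds plus TPO (26 pM final, its EC50) for 24 hrs at 37 C; luminescence was read.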

[4] = Cell Viability - LYMP2-001 (AID 921); settings: LYMP2-001 lymphoblastoid cell viability; activity change, negative = cytotoxic: at 92.2 µM (top of the series); note: nearly all actives have a fitted effect of over 70% in size; note: potency is the fitted concentration of half-maximal effect;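 for activity change, negative = cytotoxic: 0% = DMSO only and full inhibition = tetraoctylammonium bromide control wells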
Method in brief: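 Human lymphoblastoid cells (Coriell), 2500 per well, were preincubated 5 hr at 37 C, then exposed to compounds in complete medium for 24 hr at 37 C. Cellular ATP was read by CellTiter-Glo luminescence; AC50 from Hill fits of concentration-response data.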

[5] = Confirmation and Secondary Assay for Modulators of Hemoglobin Beta Chain Splicing at IVS2 654 locus (AID 910); settings: HeLa EGFP-654 splicing reporter, GFP fluorescence, 48 h;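 note: HeLa cells stably carrying EGFP split by mutant beta-globin IVS2-654 intron; potency is the fitted concentration of half-maximal effect; potency of activators that raise GFP signal by restoring correct splicing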
Method in brief: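 HeLa cells stably expressing EGFP interrupted by β-globin IVS2-654 intron, seeded overnight in Opti-MEM/2% FCS, then treated 2 days at 37 °C. Restored splicing read as total peak GFP intensity per well by laser scanning cytometry (488 nm excitation, 500–520 nm emission); 500 nM antisense PNA as control.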

[6] = qHTS Assay for Identification of Small Molecule Antagonists for Thrombopoietin (TPO) Signaling Pathway (AID 918); settings: TPO-dependent cell signaling reporter, antagonist mode; activity change, negative = inhibition: at 38.5 µM (top of the series); note: nearly all actives have a fitted effect of over 60% in size; note: potency is the fitted concentration of half-maximal effect
Method in brief: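 First, Ba/F3 reporter cells expressing human TPO receptor were held overnight without IL-3. Next, compound and 26 pM TPO were added. After 24 hrs incubation at 37 C, luciferase luminescence under the Glycoprotein IIb promoter was recorded.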

[7] = molecular target: Muscarinic acetylcholine receptor M1 (Rattus norvegicus) (UniProt P08482); experiment: qHTS Assay for Antagonists of Acetylcholine Muscarinic M1 Receptor: Measurement of IP-One Response (AID 944); note: nearly all actives have a fitted effect of over 75% in size; note: potency is the fitted concentration of half-maximal effect
Chain of UniProt P08482 (P08482 whole entry, looked up): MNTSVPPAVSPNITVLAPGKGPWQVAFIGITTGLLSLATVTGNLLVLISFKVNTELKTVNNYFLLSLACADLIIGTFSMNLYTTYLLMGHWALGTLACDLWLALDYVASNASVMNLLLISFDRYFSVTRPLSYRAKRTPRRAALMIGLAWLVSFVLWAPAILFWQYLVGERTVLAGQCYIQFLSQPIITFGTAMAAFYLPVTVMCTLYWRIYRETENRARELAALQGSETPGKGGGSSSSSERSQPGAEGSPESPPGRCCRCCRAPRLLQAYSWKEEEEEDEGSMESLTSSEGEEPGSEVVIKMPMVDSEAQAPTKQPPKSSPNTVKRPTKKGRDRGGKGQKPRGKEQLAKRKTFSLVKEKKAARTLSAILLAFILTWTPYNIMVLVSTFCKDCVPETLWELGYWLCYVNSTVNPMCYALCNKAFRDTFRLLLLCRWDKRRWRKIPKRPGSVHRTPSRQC

[8] = Cell Viability - LYMP1-002 - Assay at 16 hr (AID 948);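 note: 0% = DMSO alone and full effect = 92 µM tetraoctylammonium bromide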
Method in brief: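 Human lymphoblastoid cells (LYMP1-002), 2500/well, were preincubated 5 hr at 37 C, then exposed to compounds for 16 hr at 37 C in complete medium. Cellular ATP was read by CellTiter-Glo luminescence after 30 min at room temperature; AC50 from Hill fits.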

[9] = Cell Viability - LYMP2-004 (AID 966); settings: LYMP2-004 lymphoblastoid cell viability, qHTS; activity change, negative = cytotoxicity: at 92.2 µM (top of the series);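 note: plate controls were DMSO only for no effect and tetraoctylammonium bromide control for full effect; nearly all actives have a fitted effect of over 65% in size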
Method in brief: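 Acute toxicity is scored as a concentration-dependent drop in intracellular ATP, quantified by luciferase luminescence, in human lymphoblastoid cells exposed to compound for 24 hr. AC50 derives from Hill-equation modelling.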

[10] = molecular target: Muscarinic acetylcholine receptor M1 (Rattus norvegicus) (UniProt P08482); experiment: qHTS Assay for Antagonists of Acetylcholine Muscarinic M1 Receptor: Kinetic Measurement of Intracellular Calcium Response (AID 943); note: potency is the fitted concentration of half-maximal effect; nearly all actives have a fitted effect of over 75% in size
Method in brief: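 Intracellular calcium flux, recorded with Fluo-4 in a kinetic plate reader, served as signal; the response to carbachol at EC80 (100 nM final) was taken as maximal over minimal fluorescence after a 10 min compound pre-incubation in rat M1-CHO cells.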

[11] = MultiTox-Fluor Cytotoxicity Assay - LYMP1-002 - Dead Cells (AID 960); note: potency is the fitted concentration of half-maximal effect; nearly all actives have a fitted effect of over 60% in size
Method in brief: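 Acute cytotoxicity in a human lymphoblastoid line is scored as rising dead-cell protease signal after 16 hr exposure at 37 C, measured fluorometrically (485/520).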
Tags give direction and shape of the fitted curve or compound fluorescence and quenching.

CN(C)CCN(Cc1ccc(Cl)cc1)c1ccccn1
Potency [1]: active: 6.31 µM | activation [2]: inconclusive: -17.2%

CN(C)CCCN1c2ccccc2CCc2ccc(Cl)cc21
Potency [1]: inactive | Potency [3]: inconclusive: 12.6 µM [inhibitor, partial curve]

Nc1ccc(S(N)(=O)=O)cc1
activation [2]: inconclusive: -15% | activity change, negative = cytotoxic [4]: inconclusive: -35% [cytotoxic]

CN1C(C(=O)Nc2ccccn2)=C(O)c2sccc2S1(=O)=O
activation [2]: inactive: -9.7%

Cc1cc2nc3c(=O)[nH]c(=O)nc-3n(CC(O)C(O)C(O)CO)c2cc1C (stereo unspecified)
Potency [5]: inconclusive: 31.6 µM [activator, single point]

C1COC(NC(C2CC2)C2CC2)=N1
Potency [1]: inactive | activity change, negative = inhibition [6]: inconclusive: -11.4% [phenotype inactive]

Cc1cccc(CN2CCN(C(c3ccccc3)c3ccc(Cl)cc3)CC2)c1 (stereo unspecified)
Potency [2]: inconclusive: 12.6 µM [inhibitor, single point]

O=C(O)[C@H](Cc1c[nH]c2ccccc12)N1C(=O)c2ccccc2C1=O
activity, negative = inhibition [1]: inactive: 56.2% [at 11.4 µM]

COc1ccc2nc(S(=O)Cc3ncc(C)c(OC)c3C)[nH]c2c1 (stereo unspecified)
activation [2]: inactive: -6.85% and inactive: -23.9%

NCCCCNCCCN
activation [2]: inconclusive: 5.53% | Potency [3]: inconclusive: 6.31 µM [inhibitor, partial curve] | Potency [6]: active: 6.31 µM | Potency [7]: inconclusive: 8.91 µM [inhibitor, partial curve, poor fit]

COc1ccc2c(c1)c(CC(=O)OCC(=O)O)c(C)n2C(=O)c1ccc(Cl)cc1
Potency [2]: inconclusive: 10 µM [inhibitor, partial curve, poor fit] and inconclusive: 100 nM [inhibitor, full curve]

NC(=O)c1cnccn1
Potency [1]: inactive | activity change, negative = inhibition [6]: inconclusive: 5.55% [phenotype inactive] | Potency [8]: inactive | activity change, negative = cytotoxicity [9]: inconclusive: 41%

CN(C)c1ccccc1CN1CCCN(Cc2ccccc2N(C)C)C1c1ccncc1
activation [2]: inconclusive: 12.9%

Nc1nc(=S)c2[nH]cnc2[nH]1
Potency [5]: active: 31.6 µM

CC1=CC(=O)c2ccccc2C1=O
Potency [2]: inconclusive: 12.6 µM [cytotoxic, side channel, single point]

CCC(=O)O[C@]1(C(=O)CCl)[C@@H](C)C[C@H]2[C@@H]3CCC4=CC(=O)C=C[C@]4(C)[C@@]3(F)[C@@H](O)C[C@@]21C
activation [2]: inconclusive: -28.7%

O=c1[nH]cnc2[nH]ncc12
Potency [1]: inactive | activity change, negative = inhibition [6]: inconclusive: -20.4% [phenotype inactive]

COC(=O)Nc1nc2ccc(C(=O)c3ccccc3)cc2[nH]1
Potency [2]: inconclusive: 794 nM [inhibitor, full curve] and inconclusive: 3.16 µM [inhibitor, partial curve]

NS(=O)(=O)c1cc2c(cc1Cl)NC=NS2(=O)=O
activation [2]: inactive: 13.9% and inactive: 2.11% and inactive: -1.51% | Potency [3]: inactive | activity change, negative = inhibition [6]: inconclusive: -17.5% [phenotype inactive] | Potency [10]: inconclusive: 28.2 µM [inhibitor, partial curve, poor fit] | Potency [7]: inconclusive: 20 µM [inhibitor, partial curve, poor fit] | Potency [11]: inconclusive: 0.199 µM [cytotoxic, full curve]

Cn1c(=O)c2c(ncn2C)n(C)c1=O
activation [2]: inactive: -1.38% | activity change, negative = inhibition [6]: inconclusive: -11.9% [phenotype inactive] | Potency [7]: inactive | Potency [9]: inactive

Cc1cnc(NC(=O)C2=C(O)c3ccccc3S(=O)(=O)N2C)s1
Potency [3]: inconclusive: 3.98 µM [inhibitor, partial curve]

COc1ccc2c(c1)c(CC(=O)O)c(C)n2C(=O)c1ccc(Cl)cc1
Potency [2]: inconclusive: 10 µM [inhibitor, full curve] and inconclusive: 6.31 µM [inhibitor, partial curve] | activity change, negative = inhibition [6]: inconclusive: 17.8% [phenotype inactive] | Potency [4]: inconclusive: 12.6 µM [cytotoxic, partial curve, poor fit]

O=C(O)c1cccnc1
activation [2]: inconclusive: 37.5%

S=P(N1CC1)(N1CC1)N1CC1
Potency [5]: inconclusive: 2.51 µM [activator, single point]

CC(NCCc1ccc(O)cc1)C(O)c1ccc(O)cc1 (stereo unspecified)
Potency [2]: inconclusive: 0.01 µM [inhibitor, full curve]
